Data on one molecule can be found in PMC4962086, “A cholesterol-binding domain in STIM1 modulates STIM1-Orai1 physical and functional interactions” (Scientific Reports, 2016).

In this test the target is mCherry-Orai1 (UniProt Q96D31 1-301). Kind of test: cell-based or functional assay.
Chain of UniProt Q96D31 (Q96D31 whole entry): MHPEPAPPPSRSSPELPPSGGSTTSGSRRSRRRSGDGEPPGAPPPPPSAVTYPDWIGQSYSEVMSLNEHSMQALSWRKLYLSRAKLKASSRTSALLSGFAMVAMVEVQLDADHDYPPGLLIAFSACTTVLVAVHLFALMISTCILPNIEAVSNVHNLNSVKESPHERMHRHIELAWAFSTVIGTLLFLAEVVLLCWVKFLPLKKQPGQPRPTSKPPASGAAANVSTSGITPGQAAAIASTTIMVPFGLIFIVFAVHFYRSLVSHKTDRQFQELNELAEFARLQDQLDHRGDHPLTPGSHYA

B1: GFP-SOAR (Stim Orai Activating Region of STIM1), wild type (domain or fragment)
chain: not shown
In the case of B1, the “cytoplasmic calcium influx on addition of extracellular calcium (area under the curve), cells depleted of cholesterol with MβCD against cells with normal cholesterol” value amounted to 5 fold.
